# Assay results published in ChEMBL document CHEMBL4888484, “Replenishing the malaria drug discovery pipeline: Screening and hit evaluation of the MMV Hit Generation Library 1 (HGL1) against asexual blood stage Plasmodium falciparum ,using a nano luciferase reporter read-out” (2022).
# Out of some 150,000 compounds screened, about 540 (0.36%) showed an effect of 50% or more. The list shows a part of the results.
# System: Plasmodium falciparum
# Test: Primary screen in NF54 nanoGlo assay, in single point, at 2uM, 72h; a lower Z score goes with more inhibition
# Format: functional, Erythrocyte
# Details: timepoint 72 hour
SMILES,% Inhibition,Z score
CC(C)C(C)(C)CS(=O)(=O)NCCc1cn[nH]c1,-11%,2
O=C(Nc1ccc(N2CCOCC2)cc1)Nc1ccc(F)cc1F,36%,-4.59
c1nc(N2CC3CCCCC3C2)c2[nH]cnc2n1 (stereo unspecified),31%,-3.9
COc1ccccc1CNC(=O)c1cnn(-c2cccc(F)c2)c1C1CCN(C(=O)OC(C)(C)C)CC1,-5%,0.89
NC(=O)c1cc2c(nc1N1CCC[C@H](c3nccn3CC3CC3)C1)CCC2,-24%,2.36
Cn1cc(S(=O)(=O)Nc2sc(C3CC3)nc2-c2ccccc2)cn1,-10%,1.6
COc1ccc(-n2cc([C@H](C)NC(=O)CCC(F)(F)F)cn2)cc1,-18%,1.63
C[C@H]1CCc2c(sc(NC(=O)CN3CCNC(=O)C3)c2C#N)C1,-41%,4.76
Cc1ccc2ncc(CN3CCN([C@@H](C)C(=O)NC4CCCC4)CC3)n2c1,1%,-0.14
COc1ccc(-c2nc(CCNC(=O)C(F)(F)F)n3ccccc23)cc1,-6%,0.88
COCCn1c(N)c(C(=O)CN(C)c2cc(C)ccc2C)c(=O)[nH]c1=O,-4%,0.48
Cc1cccc(C2C(C(=O)NC3CC3)c3ccccc3C(=O)N2C2CC2)c1 (stereo unspecified),-12%,1.11
Clc1c(CN2CC[C@H](N3CCCCC3)C2)[nH]c2ccccc12,0%,0.08
Cc1cncc(C(=O)NCc2cccnc2Oc2ccc(F)cc2F)c1,2%,-0.37
COCCC(=O)N1CC[C@@H]2OCc3cccc(c3)Oc3cccc(c3)CCC(=O)N(C)CC(=O)N[C@@H]2C1,-5%,0.66
COC(=O)NCC(=O)N1C[C@@H]2CC[C@H]1CN(CCCc1ccccc1)C2,7%,-1.06
O=C(c1c[nH]c(=O)[nH]1)N1CCC(c2nnc3n2CCCCC3)CC1,3%,-0.54
CNC(=O)NC[C@H]1COCCN1C(=O)c1ccc(C(F)F)c(F)c1,-8%,0.91
CC(C)(C)OC(=O)N[C@H]1CCN(C(=O)c2cc(F)ccc2F)C1,2%,-0.17
Cc1cc(N(C)CCC2CC2)nc([C@H](C)N(C)CCC2CC2)n1,59%,-9.38
CC1CCCC(OCC(=O)NC(C)CCC2CCCO2)C1 (stereo unspecified),-5%,0.43

SMILES,% Inhibition,Z score
C=CCCC(=O)N1CCC(N2C(=O)COCC2=O)CC1,10%,-1.34
CN1CC(=O)N(CCOCC(F)(F)C(F)(F)F)C1=O,-12%,1.77
c1ccc(-c2ccc(-c3n[nH]c4c3CN(CCCn3cnnn3)CC4)cc2)cc1,6%,-1.25
COCCCn1ccc(Nc2ncc(Br)cn2)n1,8%,-0.92
C[C@@H](c1cccc(-c2cn(CCn3cccn3)nn2)c1)N(C)C,1%,-0.08
COc1ccc(-c2c(C)noc2NC(C)=O)cc1S(=O)(=O)N(C)c1ccc(C)cc1,-13%,1.9
C[C@@H]1CN(C(=O)c2ccc(F)c(Cl)c2)CC[C@@]1(O)C1CCOCC1,2%,-0.38
Cc1ncsc1CCNC(=O)[C@H]1CCN(c2ccc(C(F)(F)F)cn2)C1,-4%,0.7
O=C(CC1CCCC1)N1CCCc2cnc(N3CCOCC3)nc21,2%,-0.2
O=C(O)CC1(CC(=O)Nc2cc(N3CCCC3=O)ccc2F)CCCCC1,-4%,0.8
CC[C@H](OC)C(=O)NCCc1cccc(Cl)c1,-2%,0.2
CCOc1ccc(NC(=O)Cn2c(C)cc3nc4n(c(=O)c32)CCCC4)cc1,-3%,0.47
Cc1ccc(-n2nc(C(=O)N3CCOCC3)c(=O)n(Cc3ccccc3)c2=O)cc1,-7%,1.09
C[C@H](NS(=O)(=O)c1ccc2c(c1)CCN2C(=O)N1CCCC1)C(=O)Nc1nccs1,-12%,2.01
Cc1[nH]c2ccccc2c1C1CCN(C(=O)Cn2ccccc2=O)CC1,-10%,1.47
CCOC(=O)N1CCC(NC(=O)c2nnn(-c3cc(Cl)ccc3OC)c2C)CC1,26%,-2.9
CC(C)CC(=O)N1CCC[C@H]1C(=O)N[C@H]1CC[C@H](NC(=O)c2ccccc2)CC1,-4%,0.59
CN(C)C1CCCC(C(=O)NCC2CCCC2)C1 (stereo unspecified),-10%,1.02
Cc1c(C(=O)NCCS(N)(=O)=O)nnn1-c1cccc2ncccc12,-6%,0.94
CC(=O)c1cc(-c2nc(-c3cccnn3)no2)c(=O)[nH]c1C,-17%,2.87
Cc1cc(C)nc(O[C@H]2CCCN(C(=O)c3ccccc3C)C2)n1,-2%,0.28

SMILES,% Inhibition,Z score
C[C@H](NC(=O)c1cncc(O)c1)c1ncnn1C,-7%,0.98
O=C(c1ccc2[nH]ccc2c1)N1CCC(F)(F)C1,-7%,0.93
CC(CCCc1ccccc1)C(=O)N1CCCC(c2nnn[nH]2)C1 (stereo unspecified),4%,-0.48
C[C@@H]1Oc2ccc(S(=O)(=O)N3CCC(C(=O)N4CCN(c5ccccc5)CC4)CC3)cc2NC1=O,-9%,1.8
O=C1CN(c2ccc(NC(=O)NCc3cccnc3)cn2)CCN1,-10%,1.96
C[C@@H](NS(=O)(=O)c1ccc2c(c1)OCCO2)c1ccccc1,31%,-3.5
CN(C)C(=O)NC1CCN(c2cccs2)CC1,-19%,2.31
NS(=O)(=O)c1ccc(CNC(=O)C2CN(C(c3ccccc3)c3ccccc3)C2)cc1,-11%,1.38
CC(C)c1noc(CN2CCC(N3CCC[C@H](C(=O)N4CCCC4)C3)CC2)n1,-6%,1.21
COc1ccc(NC(=O)CC[C@H]2CCCN(C(=O)C#Cc3ccccc3)C2)c(C)c1,-24%,2.22
CCc1noc(C2(n3cccn3)CC2)n1,-8%,0.8
C=C[C@H](CO)NC(=O)c1[nH]nc(C(F)(F)F)c1C,-15%,2
CC1CC(C)CN(C(=O)CN2CCCCCC2=O)C1 (stereo unspecified),3%,-0.35
Cc1nnc(NCc2ccc3[nH]c(C)c(C)c3c2)c(C#N)c1C,-3%,0.41
O=C(O)C1C2C=CC(C2)C1C(=O)N1CCN(c2ccc(F)cc2)CC1 (stereo unspecified),-8%,1.13
Cc1cc(C)cc(NC(=O)CC(=O)N[C@H]2CCCC[C@@H]2O)c1,-3%,0.3
CCN(C(=O)CCC(=O)N1CCC(C)(c2noc(-c3ccccc3)n2)CC1)c1ccccc1,-22%,2.81
CCn1ccc(CN2CC[C@]34C(=O)N(CC(=O)N(C)CCCOc5cccc(c5)[C@H]23)c2ccccc24)n1,-4%,0.68
O=C1N[C@@H](COCc2ccccc2)C(=O)N[C@H]1CO,1%,-0.1
O=C(CCN1CCc2ccccc21)Nc1cccc(Cl)c1,-4%,0.76
O=C(Nc1ccccc1N1CCCC1)c1ccc2ccccc2n1,-2%,0.2

SMILES,% Inhibition,Z score
COc1ccccc1N1CCN(C(=O)c2cc3c(=O)n(CC(C)C)ccc3n2C)CC1,-12%,1.14
Cc1nc2cncc(N3CCN(C[C@H]4COCCO4)CC3)n2n1,0%,0.03
CS(=O)(=O)N1CCC[C@H](CNC(=O)c2cncc(Cl)c2)C1,-7%,0.86
CCOC(=O)N1CCC(N[C@@H](CC)c2ccncc2)CC1,3%,-0.4
CC1CCN(C(=O)NCCCc2nc3c(s2)CCCC3)C1CO (stereo unspecified),-8%,1.08
COc1cccc(-c2ccc(N3CCCN(C(=O)CN(C[C@H]4CCCO4)C(=O)c4ccc5c(c4)OCO5)CC3)nn2)c1,6%,-0.77
O=C(NCc1ccco1)C(=O)NC[C@](O)(c1ccoc1)c1ccco1,-8%,1.22
Cc1sc(-c2c[nH]c3ccccc23)nc1-c1c[nH]c2ccccc12,1%,-0.14
O=C(CNC(=O)C1CCCCC1)NC1CCCCCC1,28%,-3.2
O=C(CCCn1ccnc1)NCCn1cc(Cl)cn1,3%,-0.63
O=C(Cc1cccc(O)c1)N1CCC2(CCCC2)C1,-3%,0.5
CC(c1ccccc1)n1cc(NC(=O)N2C[C@H](C)C[C@H](O)C2)cn1 (stereo partly specified),-3%,0.34
C#CCNC(=O)NCc1cccc(C(=O)OC)c1,-7%,0.76
CCCNCC[C@H]1CCC(=O)N1C1Cc2ccccc2C1,-7%,0.85
O=S(=O)(c1cccc(F)c1)N1CCN(Cc2cc(Cl)ccc2OCc2cccnc2)CC1,-5%,1
CC[C@H](C)c1nnc(C2(c3cccc(C(F)(F)F)c3)CCOCC2)o1,-6%,0.61
COc1ncccc1CNC(=O)C1CCC(=O)C(C)C1 (stereo unspecified),8%,-0.86
O=C(Nc1ccc2c(c1)OCO2)c1nnc(CNS(=O)(=O)c2ccccc2C(F)(F)F)s1,-6%,1.03
CNS(=O)(=O)NC1CCN(Cc2ccc(Cl)cc2Br)CC1,-1%,0.12
C=CCn1cc(CN2CC[C@H]2c2cccc(OC)c2)c(C)n1,-8%,1
